For test [1], the target named is T1, Grb2 associated binding protein 1 (Gab1), mouse (mouse (endogenous in MEFs)) (UniProt Q9QYY0).
T1 sequence: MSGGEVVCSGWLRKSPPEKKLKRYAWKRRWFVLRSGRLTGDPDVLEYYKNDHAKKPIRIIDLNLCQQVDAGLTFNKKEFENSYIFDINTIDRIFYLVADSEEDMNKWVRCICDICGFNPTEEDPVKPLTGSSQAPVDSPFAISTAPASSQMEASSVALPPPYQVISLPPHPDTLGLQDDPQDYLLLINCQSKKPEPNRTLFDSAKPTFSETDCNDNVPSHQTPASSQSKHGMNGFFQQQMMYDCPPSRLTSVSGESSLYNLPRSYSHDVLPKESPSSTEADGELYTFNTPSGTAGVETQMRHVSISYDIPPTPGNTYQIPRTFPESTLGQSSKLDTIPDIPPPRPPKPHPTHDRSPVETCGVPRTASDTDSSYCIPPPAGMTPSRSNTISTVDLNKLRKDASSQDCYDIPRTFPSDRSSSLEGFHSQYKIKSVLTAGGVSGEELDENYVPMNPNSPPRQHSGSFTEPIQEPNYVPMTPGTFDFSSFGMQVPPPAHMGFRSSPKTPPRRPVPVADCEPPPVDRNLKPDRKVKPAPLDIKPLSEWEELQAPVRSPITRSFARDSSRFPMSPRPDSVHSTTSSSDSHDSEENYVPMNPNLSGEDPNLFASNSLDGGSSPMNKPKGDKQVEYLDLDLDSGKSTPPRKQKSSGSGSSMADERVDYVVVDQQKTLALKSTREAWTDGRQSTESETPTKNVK
The test is described as follows: co-IP; WT MEFs after Netrin-1 treatment; Gab1 immunoprecipitated from total cellular lysates (antibody overnight at 4°C, Protein A/Sepharose beads), Western blotting (Figure S2A). A general note: A western blot detects proteins with antibodies after separation by electrophoresis.

Protein sequences, listed by entry. Tags and fused reporters are not part of them. Residues count along the entry.
UniProt P97798, residues 37-1492: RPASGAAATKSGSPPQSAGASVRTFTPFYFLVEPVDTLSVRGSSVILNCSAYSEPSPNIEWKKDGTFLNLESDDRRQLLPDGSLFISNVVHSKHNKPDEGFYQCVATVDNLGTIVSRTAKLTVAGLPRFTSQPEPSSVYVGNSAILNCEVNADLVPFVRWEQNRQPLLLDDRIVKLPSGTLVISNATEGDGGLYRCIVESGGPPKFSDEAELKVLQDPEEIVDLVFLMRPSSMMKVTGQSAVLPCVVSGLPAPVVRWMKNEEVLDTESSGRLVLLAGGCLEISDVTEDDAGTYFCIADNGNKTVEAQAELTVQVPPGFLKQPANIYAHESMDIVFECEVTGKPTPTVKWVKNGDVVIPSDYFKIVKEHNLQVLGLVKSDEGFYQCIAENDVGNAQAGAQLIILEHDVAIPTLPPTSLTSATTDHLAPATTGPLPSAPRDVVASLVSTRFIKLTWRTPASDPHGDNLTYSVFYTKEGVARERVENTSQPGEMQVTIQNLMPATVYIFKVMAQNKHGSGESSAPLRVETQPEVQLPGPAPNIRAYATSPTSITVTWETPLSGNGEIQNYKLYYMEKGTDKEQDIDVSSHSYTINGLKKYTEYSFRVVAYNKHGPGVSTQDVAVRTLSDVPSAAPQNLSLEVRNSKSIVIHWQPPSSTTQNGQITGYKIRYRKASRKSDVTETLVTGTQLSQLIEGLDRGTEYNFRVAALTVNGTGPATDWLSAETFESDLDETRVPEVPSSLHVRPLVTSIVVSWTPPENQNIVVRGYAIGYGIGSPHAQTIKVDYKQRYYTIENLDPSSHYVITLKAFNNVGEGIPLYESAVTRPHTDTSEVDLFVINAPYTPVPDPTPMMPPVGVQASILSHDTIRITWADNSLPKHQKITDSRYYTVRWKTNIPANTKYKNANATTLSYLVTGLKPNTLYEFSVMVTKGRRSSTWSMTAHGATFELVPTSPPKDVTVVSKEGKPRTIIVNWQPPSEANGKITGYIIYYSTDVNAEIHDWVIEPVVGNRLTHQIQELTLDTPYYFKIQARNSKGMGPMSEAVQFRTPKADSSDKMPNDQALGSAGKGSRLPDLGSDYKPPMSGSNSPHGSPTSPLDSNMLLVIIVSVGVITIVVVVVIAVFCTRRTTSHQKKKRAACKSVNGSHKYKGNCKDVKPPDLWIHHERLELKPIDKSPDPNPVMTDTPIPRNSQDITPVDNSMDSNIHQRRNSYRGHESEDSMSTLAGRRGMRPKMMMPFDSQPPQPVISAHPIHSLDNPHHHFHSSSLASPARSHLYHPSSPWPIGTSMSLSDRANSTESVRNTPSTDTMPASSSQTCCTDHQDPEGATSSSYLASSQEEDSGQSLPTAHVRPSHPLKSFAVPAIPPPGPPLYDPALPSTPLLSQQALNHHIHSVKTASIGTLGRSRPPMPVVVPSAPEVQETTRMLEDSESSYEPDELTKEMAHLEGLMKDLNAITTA
UniProt Q8K1S3, residues 27-945: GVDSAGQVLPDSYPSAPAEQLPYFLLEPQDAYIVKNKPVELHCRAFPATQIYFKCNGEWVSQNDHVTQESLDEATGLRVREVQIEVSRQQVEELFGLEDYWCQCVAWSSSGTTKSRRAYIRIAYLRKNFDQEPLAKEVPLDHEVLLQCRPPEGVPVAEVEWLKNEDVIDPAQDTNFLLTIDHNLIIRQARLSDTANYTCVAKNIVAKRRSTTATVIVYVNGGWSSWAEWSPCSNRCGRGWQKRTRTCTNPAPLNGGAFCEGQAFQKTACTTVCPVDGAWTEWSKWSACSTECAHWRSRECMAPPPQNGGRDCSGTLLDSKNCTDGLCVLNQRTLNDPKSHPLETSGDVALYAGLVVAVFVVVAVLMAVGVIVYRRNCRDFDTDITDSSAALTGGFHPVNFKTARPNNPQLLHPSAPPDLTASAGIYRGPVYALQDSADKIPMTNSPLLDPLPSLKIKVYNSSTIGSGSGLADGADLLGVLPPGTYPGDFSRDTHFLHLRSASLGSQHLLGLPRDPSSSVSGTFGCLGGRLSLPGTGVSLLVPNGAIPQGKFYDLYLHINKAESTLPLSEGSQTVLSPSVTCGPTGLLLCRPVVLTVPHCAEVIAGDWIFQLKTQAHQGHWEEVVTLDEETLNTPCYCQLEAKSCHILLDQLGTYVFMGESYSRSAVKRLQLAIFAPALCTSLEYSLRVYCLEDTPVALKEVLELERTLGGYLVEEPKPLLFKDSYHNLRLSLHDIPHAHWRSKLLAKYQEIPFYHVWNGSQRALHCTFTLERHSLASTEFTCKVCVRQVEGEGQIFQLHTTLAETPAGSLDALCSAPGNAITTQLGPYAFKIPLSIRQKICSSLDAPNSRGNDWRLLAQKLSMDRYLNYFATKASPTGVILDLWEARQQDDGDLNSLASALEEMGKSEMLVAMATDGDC
UniProt P70211, residues 26-1447: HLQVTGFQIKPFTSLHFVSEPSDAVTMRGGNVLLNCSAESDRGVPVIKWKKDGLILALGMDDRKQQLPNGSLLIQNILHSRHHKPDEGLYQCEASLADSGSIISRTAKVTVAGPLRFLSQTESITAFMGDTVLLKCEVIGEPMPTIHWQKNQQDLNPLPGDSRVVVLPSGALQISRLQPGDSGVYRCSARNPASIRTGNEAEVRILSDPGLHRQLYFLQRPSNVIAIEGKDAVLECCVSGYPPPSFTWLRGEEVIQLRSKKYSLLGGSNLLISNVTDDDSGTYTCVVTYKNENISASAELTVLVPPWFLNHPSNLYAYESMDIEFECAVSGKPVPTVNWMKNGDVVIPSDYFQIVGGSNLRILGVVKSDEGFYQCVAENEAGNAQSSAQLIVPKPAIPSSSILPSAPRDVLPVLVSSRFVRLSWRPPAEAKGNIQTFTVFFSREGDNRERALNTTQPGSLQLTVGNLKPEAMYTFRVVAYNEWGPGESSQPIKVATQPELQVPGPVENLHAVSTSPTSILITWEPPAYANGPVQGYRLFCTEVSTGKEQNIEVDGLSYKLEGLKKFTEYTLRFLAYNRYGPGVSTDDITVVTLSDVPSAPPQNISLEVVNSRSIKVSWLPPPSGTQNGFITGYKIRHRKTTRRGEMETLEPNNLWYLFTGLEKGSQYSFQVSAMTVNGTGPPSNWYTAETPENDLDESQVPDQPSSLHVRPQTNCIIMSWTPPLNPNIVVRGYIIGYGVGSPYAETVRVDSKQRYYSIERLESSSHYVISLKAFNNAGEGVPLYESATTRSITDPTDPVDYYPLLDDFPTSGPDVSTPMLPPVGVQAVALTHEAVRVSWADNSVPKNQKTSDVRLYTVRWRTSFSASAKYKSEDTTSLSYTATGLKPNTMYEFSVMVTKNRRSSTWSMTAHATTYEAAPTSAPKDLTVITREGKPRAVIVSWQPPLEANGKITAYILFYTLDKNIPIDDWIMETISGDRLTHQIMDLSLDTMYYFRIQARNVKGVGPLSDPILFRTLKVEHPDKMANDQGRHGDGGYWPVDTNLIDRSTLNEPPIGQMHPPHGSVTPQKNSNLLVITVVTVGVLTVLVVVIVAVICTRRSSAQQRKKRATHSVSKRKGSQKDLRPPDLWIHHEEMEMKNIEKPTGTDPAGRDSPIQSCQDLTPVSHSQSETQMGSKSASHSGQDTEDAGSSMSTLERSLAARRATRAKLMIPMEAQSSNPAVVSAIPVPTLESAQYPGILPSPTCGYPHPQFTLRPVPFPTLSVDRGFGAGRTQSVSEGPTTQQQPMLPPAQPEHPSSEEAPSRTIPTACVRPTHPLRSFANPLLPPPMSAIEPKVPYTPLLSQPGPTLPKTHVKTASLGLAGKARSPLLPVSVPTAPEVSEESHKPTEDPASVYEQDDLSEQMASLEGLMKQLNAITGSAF
UniProt P63096: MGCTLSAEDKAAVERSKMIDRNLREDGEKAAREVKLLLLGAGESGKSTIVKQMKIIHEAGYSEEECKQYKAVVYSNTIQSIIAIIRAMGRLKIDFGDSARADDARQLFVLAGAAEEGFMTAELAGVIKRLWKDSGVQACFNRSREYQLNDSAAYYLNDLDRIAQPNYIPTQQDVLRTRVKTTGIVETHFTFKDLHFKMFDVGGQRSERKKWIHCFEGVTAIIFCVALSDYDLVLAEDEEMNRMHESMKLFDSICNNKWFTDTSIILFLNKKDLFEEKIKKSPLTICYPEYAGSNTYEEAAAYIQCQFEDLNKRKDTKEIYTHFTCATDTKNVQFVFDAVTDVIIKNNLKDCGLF
UniProt Q9DC51: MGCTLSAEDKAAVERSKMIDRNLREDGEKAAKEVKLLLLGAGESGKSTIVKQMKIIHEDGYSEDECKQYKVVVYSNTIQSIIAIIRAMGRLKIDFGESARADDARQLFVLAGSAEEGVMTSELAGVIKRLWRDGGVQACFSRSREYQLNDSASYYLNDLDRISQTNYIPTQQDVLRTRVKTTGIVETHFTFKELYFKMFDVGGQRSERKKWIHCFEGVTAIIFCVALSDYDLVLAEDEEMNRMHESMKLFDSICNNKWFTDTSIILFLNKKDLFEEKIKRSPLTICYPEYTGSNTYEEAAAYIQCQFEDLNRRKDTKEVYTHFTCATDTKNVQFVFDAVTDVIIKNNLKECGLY
UniProt Q8IZJ1, residues 27-945: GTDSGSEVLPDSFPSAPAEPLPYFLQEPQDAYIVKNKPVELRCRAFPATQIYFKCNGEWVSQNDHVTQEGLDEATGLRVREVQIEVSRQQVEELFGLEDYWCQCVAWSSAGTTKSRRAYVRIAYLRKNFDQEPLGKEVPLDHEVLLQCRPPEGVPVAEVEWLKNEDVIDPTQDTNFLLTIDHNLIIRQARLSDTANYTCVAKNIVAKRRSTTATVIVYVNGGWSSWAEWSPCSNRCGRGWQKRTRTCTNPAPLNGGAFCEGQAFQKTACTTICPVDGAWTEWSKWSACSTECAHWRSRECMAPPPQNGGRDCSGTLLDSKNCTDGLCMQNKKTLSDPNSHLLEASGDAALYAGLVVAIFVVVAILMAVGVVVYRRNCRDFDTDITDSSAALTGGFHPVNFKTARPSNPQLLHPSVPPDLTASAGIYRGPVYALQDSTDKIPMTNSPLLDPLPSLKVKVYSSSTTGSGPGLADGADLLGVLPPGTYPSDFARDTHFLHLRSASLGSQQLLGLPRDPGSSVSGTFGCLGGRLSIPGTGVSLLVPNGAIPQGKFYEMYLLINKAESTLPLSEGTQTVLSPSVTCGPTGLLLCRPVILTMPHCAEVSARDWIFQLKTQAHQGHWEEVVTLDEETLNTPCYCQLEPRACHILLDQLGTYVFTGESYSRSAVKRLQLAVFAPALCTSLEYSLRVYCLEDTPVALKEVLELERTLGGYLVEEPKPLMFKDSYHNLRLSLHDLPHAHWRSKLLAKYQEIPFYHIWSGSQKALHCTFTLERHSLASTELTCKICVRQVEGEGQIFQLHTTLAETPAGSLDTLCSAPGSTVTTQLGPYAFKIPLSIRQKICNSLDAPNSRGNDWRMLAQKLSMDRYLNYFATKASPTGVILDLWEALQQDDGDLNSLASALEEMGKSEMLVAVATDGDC
UniProt P43121, residues 24-646: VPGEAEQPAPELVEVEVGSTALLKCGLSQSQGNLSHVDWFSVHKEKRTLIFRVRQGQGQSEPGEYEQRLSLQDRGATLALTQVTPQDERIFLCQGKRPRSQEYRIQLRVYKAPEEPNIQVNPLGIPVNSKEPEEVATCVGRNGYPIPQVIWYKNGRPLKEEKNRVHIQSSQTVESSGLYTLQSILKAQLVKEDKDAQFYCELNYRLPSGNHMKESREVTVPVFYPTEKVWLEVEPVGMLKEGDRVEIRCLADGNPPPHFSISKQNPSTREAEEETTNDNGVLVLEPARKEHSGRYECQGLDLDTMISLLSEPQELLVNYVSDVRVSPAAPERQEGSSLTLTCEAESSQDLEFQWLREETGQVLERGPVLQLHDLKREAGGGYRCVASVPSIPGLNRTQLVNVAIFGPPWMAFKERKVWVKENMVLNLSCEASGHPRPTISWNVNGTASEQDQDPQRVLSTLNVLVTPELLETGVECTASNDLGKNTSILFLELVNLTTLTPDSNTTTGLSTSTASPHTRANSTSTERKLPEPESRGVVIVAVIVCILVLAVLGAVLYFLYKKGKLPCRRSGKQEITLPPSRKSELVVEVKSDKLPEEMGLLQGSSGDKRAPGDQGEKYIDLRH
UniProt B2RSH2: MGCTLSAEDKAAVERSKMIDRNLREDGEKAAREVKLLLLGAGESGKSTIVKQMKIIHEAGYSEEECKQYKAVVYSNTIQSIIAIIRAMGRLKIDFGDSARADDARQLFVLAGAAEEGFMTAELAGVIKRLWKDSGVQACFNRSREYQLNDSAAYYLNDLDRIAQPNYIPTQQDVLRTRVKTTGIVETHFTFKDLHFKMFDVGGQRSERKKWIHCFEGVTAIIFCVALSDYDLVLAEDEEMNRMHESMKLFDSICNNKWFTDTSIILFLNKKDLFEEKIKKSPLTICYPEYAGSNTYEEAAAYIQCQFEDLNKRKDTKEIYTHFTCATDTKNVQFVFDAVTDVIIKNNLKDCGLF

In test [2] the target is T2, Grb2 associated binding protein 1 (Gab1), human (human (endogenous in HUVECs)) (UniProt Q13480).
T2 sequence: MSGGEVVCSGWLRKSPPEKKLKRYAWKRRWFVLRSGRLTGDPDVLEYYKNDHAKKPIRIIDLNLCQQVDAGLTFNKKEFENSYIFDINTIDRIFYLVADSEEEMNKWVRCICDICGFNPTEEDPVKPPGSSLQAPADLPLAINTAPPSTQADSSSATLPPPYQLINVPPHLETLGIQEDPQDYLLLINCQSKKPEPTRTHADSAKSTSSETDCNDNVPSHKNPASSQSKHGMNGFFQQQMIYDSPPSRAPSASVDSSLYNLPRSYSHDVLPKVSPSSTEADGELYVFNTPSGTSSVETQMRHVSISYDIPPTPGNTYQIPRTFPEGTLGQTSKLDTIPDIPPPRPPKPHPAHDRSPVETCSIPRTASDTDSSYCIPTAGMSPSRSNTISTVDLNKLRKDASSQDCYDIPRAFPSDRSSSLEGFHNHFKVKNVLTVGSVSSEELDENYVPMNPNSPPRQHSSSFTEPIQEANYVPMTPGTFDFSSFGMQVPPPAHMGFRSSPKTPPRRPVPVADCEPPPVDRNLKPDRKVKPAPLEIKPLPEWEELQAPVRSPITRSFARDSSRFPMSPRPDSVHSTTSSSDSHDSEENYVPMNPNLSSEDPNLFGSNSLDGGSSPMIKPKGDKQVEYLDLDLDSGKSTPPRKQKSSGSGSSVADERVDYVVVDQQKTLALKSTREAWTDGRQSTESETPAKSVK
The test is described as follows: co-IP; primary HUVECs treated with Netrin-1 (25 ng/mL) for 5 min; Gab1-immunoprecipitated proteins tested by Western blotting (Figure 3A).

Test [3] deals with Neogenin, mouse (mouse (endogenous in MEFs)) (UniProt P97798). The test is described as follows: co-IP; WT MEFs treated with Netrin-1 (25 ng/mL) for 5 min; primary antibody added to total cellular lysates overnight at 4°C, Protein A/Sepharose beads, Western blotting; precipitating antibody not stated (Figure 2B).
The target in test [4] is T1, Grb2 associated binding protein 1 (Gab1), mouse (mouse (endogenous in MEFs)). Described as above.
Test [5] deals with Unc-5 Netrin receptor B (UNC5B), mouse (mouse (endogenous in MEFs)) (UniProt Q8K1S3). The test is described as above.
Test [6] addresses DCC Netrin-1 receptor (DCC), mouse (mouse (endogenous in MEFs)) (UniProt P70211). Described as above.
Test [7] addresses T3, CD146 (melanoma cell adhesion molecule, MCAM), mouse (mouse (endogenous in MEFs)) (UniProt Q8R2Y2).
T3 sequence: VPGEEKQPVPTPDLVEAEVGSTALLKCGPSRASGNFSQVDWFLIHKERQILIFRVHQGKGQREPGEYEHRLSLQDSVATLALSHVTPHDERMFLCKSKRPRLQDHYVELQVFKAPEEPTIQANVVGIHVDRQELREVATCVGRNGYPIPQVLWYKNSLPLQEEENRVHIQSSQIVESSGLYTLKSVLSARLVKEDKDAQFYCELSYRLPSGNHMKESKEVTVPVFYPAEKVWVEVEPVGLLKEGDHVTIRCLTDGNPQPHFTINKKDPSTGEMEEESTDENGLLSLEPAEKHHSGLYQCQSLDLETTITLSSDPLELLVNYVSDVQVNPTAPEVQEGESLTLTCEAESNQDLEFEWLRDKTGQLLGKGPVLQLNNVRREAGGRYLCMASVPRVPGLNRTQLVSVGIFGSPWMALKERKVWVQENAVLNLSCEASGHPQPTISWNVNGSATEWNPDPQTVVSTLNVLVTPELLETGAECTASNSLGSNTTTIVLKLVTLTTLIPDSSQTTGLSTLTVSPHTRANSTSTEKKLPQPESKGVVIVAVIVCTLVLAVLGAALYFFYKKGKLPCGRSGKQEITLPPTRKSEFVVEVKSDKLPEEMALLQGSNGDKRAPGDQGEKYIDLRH
The description is as above.

No constants are given. Whether binding was seen depends on the method and setting. Binding seen in cells or lysates may run through a third protein. Some results given as binding are weak or reduced against the parent protein; the word gives no strength.

With “DCC Netrin-1 receptor (DCC), mouse (from UniProt P70211 26-1447)”, the binding result in test [1] is listed as “no binding”. As to “G protein subunit alpha i1 (Gαi1), human (from UniProt P63096 1-354)”, in test [2], the binding result is recorded as “binds”. Take “G protein subunit alpha i3 (Gαi3), mouse (from UniProt Q9DC51 1-354)”: the binding entry in test [3] is “no binding”; in test [4], “binds”; in test [5], “no binding”; in test [6] it was “no binding”; in test [7], “binds”; in test [1] it was “binds”. On to “Unc-5 Netrin receptor B (UNC5B), human (from UniProt Q8IZJ1 27-945)”, for which the binding entry in test [2] is on record as “no binding”. Same read-out and setting: then “G protein subunit alpha i3 (Gαi3), human (from UniProt P08754 1-354)”, with “binds”.

As to “Unc-5 Netrin receptor B (UNC5B), mouse (from UniProt Q8K1S3 27-945)”, in test [1], the binding entry is listed as “no binding”. On to “CD146 (melanoma cell adhesion molecule, MCAM), human (from UniProt P43121 24-646) (receptor)”, for which, in test [2], the binding entry was “binds”. Take “Neogenin, mouse (from UniProt P97798 37-1492) (receptor)”: the binding entry in test [1] is “no binding”. For “DCC Netrin-1 receptor (DCC), human (from UniProt P43146 26-1447)”, the binding entry in test [2] is given as “no binding”. Regarding “G protein subunit alpha i1 (Gαi1), mouse (from UniProt B2RSH2 1-354)”, the binding entry in test [3] was “no binding”; in test [4], “binds”; in test [5], “no binding”; in test [6], “no binding”; in test [7], “binds”; in test [1], “binds”.

B1: CD146 (melanoma cell adhesion molecule, MCAM), mouse (receptor, UniProt Q8R2Y2 24-648)
chain: T3 sequence
For the molecule B1, the binding result in test [4] and in test [1] was “binds” each time.

B2: Neogenin, human (receptor, UniProt Q92859 34-1461)
chain: ARSGSAPQSPGASIRTFTPFYFLVEPVDTLSVRGSSVILNCSAYSEPSPKIEWKKDGTFLNLVSDDRRQLLPDGSLFISNVVHSKHNKPDEGYYQCVATVESLGTIISRTAKLIVAGLPRFTSQPEPSSVYAGNNAILNCEVNADLVPFVRWEQNRQPLLLDDRVIKLPSGMLVISNATEGDGGLYRCVVESGGPPKYSDEVELKVLPDPEVISDLVFLKQPSPLVRVIGQDVVLPCVASGLPTPTIKWMKNEEALDTESSERLVLLAGGSLEISDVTEDDAGTYFCIADNGNETIEAQAELTVQAQPEFLKQPTNIYAHESMDIVFECEVTGKPTPTVKWVKNGDMVIPSDYFKIVKEHNLQVLGLVKSDEGFYQCIAENDVGNAQAGAQLIILEHAPATTGPLPSAPRDVVASLVSTRFIKLTWRTPASDPHGDNLTYSVFYTKEGIARERVENTSHPGEMQVTIQNLMPATVYIFRVMAQNKHGSGESSAPLRVETQPEVQLPGPAPNLRAYAASPTSITVTWETPVSGNGEIQNYKLYYMEKGTDKEQDVDVSSHSYTINGLKKYTEYSFRVVAYNKHGPGVSTPDVAVRTLSDVPSAAPQNLSLEVRNSKSIMIHWQPPAPATQNGQITGYKIRYRKASRKSDVTETLVSGTQLSQLIEGLDRGTEYNFRVAALTINGTGPATDWLSAETFESDLDETRVPEVPSSLHVRPLVTSIVVSWTPPENQNIVVRGYAIGYGIGSPHAQTIKVDYKQRYYTIENLDPSSHYVITLKAFNNVGEGIPLYESAVTRPHTDTSEVDLFVINAPYTPVPDPTPMMPPVGVQASILSHDTIRITWADNSLPKHQKITDSRYYTVRWKTNIPANTKYKNANATTLSYLVTGLKPNTLYEFSVMVTKGRRSSTWSMTAHGTTFELVPTSPPKDVTVVSKEGKPKTIIVNWQPPSEANGKITGYIIYYSTDVNAEIHDWVIEPVVGNRLTHQIQELTLDTPYYFKIQARNSKGMGPMSEAVQFRTPKADSSDKMPNDQASGSGGKGSRLPDLGSDYKPPMSGSNSPHGSPTSPLDSNMLLVIIVSVGVITIVVVVIIAVFCTRRTTSHQKKKRAACKSVNGSHKYKGNSKDVKPPDLWIHHERLELKPIDKSPDPNPIMTDTPIPRNSQDITPVDNSMDSNIHQRRNSYRGHESEDSMSTLAGRRGMRPKMMMPFDSQPPQPVISAHPIHSLDNPHHHFHSSSLASPARSHLYHPGSPWPIGTSMSLSDRANSTESVRNTPSTDTMPASSSQTCCTDHQDPEGATSSSYLASSQEEDSGQSLPTAHVRPSHPLKSFAVPAIPPPGPPTYDPALPSTPLLSQQALNHHIHSVKTASIGTLGRSRPPMPVVVPSAPEVQETTRMLEDSESSYEPDELTKEMAHLEGLMKDLNAITTA
For B2, in test [2], the binding entry is recorded as “no binding”.

These data come from paper PMC10157725.
